Measured values: PubChem BioAssay AID1634 (National Center for Advancing Translational Sciences (NCATS), 2009)
Hit rate of the full screen: of about 260,000 compounds, about 150 (0.058%) were called active. The shares of active, inactive and inconclusive entries below differ from those in the screen. Calls follow the shape of the dose curve; as a rule, active = well fitted inhibition curve with a large enough effect; inconclusive = small, poorly fitted or top-dose-only effect; inactive = no such curve, though single readings can be large or run the other way. No potency is given beside an inconclusive call; the fits are too rough.
Also: nearly all actives have a fitted effect of over 60% in size.
Potency is read from the fitted curve at half-maximal effect; tags tell the direction and shape of the fitted curve.

What follows are molecules tested against Pyruvate kinase PKM (Homo sapiens) (UniProt P14618) (assay: qHTS Assay for Inhibitors of Human Muscle isoform 2 Pyruvate Kinase). Details: purified PKM2, ATP generation, Kinase-Glo luminescence; series mostly up to 57.5 µM.
Chain of UniProt P14618 (P14618 whole entry, looked up, canonical isoform): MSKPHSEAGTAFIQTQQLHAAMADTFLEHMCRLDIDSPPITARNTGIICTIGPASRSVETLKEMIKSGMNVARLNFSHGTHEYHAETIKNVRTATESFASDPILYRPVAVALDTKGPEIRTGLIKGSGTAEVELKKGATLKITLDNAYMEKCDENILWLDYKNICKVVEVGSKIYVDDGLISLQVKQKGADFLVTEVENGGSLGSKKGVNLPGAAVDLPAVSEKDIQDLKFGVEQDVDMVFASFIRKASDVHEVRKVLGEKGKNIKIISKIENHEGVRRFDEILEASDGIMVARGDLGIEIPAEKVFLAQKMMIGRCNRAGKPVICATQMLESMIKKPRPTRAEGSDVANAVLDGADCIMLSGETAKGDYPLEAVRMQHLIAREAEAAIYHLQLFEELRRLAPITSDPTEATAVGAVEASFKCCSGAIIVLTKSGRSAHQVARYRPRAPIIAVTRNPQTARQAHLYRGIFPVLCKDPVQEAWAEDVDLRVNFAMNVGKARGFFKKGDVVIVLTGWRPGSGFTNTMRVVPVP
In short: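 Coupled luciferase luminescence (Kinase-Glo) detects ATP generated from 0.1 mM ADP and 0.5 mM PEP in imidazole buffer pH 7.2 with KCl, MgCl2; 1 h at room temperature. Enzyme at intermediate activity; normalized to uninhibited and no-enzyme controls.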
For CC(=O)c1c(C)oc2ccc(O)c(CN3CCOCC3)c12, the Potency was inconclusive [falling, single point].
CN1C(=O)Cc2cc(S(=O)(=O)Nc3ccc(Cl)cc3)ccc21 was tested, and the Potency was “inactive”.
In the case of C/C(=N/OC(=O)c1ccc(C)cc1)c1cccs1, the Potency is reported as inconclusive [falling, partial curve].
For O=C(O)c1ccc(N2Cc3ccccc3C2)cc1O, the Potency was inconclusive [falling, single point].
In the case of Cc1cccc(NC(=O)CNC(=O)COc2cc(F)ccc2[N+](=O)[O-])c1C, the Potency is reported as inconclusive [falling, single point].
Cc1cccc(/C(N)=N/OC(=O)c2ccc(Cl)cc2Cl)c1 was tested, and the Potency was inconclusive [falling, partial curve].
In the case of COc1cccc(/C=N/Nc2ncccc2[N+](=O)[O-])c1OC, the Potency is reported as inconclusive [falling, single point].
COc1ccc(CC(=O)N2CCN(S(=O)(=O)c3cccs3)CC2)cc1OC was tested, and the Potency was “inactive”.
COC(=O)c1c(N)sc(C(=O)NCCc2ccccc2)c1C was tested, and the Potency was inconclusive [falling, single point].
CCc1ccc(NC(=O)Nc2c(C)n(C)n(-c3ccccc3)c2=O)cc1 was tested, and the Potency was inconclusive [falling, single point].
For O=C(c1cc(-c2ccccn2)nc2ccccc12)N1CCN(c2ncccn2)CC1, the Potency was inconclusive [falling, single point].
With O=C(c1ccccc1)c1nc2c(n1O)CCCCC2 the Potency was inconclusive [falling, single point].
O=C(CSc1ncn[nH]1)Nc1ccc(Br)cc1F was tested, and the Potency was “inactive”.
For COCCn1c(SCC(=O)Nc2ccccc2C(F)(F)F)nc2ccccc2c1=O, the Potency was inconclusive [falling, full curve, poor fit].
In the case of COCCCNC(=O)C1CCC(CNS(=O)(=O)c2ccc(Cl)cc2)CC1 (centres undefined), the Potency is reported as inconclusive [falling, single point].
For COc1ccc(OC)c(C(=O)Cn2c3[n+](c4ccc(C(F)(F)F)cc42)CCCCC3)c1, the Potency was inconclusive [falling, full curve, poor fit].
With COc1ccc(/C=C/c2nc3ccccc3n2C)cc1 the Potency was inconclusive [falling, partial curve].
In the case of CCOC(=O)c1cnc2c(C)c(Cl)ccc2c1N1CCOCC1, the Potency is reported as inconclusive [falling, single point].
COc1ccc(CCNC(=S)N2CCN(S(=O)(=O)c3ccccc3F)CC2)cc1 was tested, and the Potency was “inactive”.
In the case of CCc1ccc(C(=O)Nc2nc3ccccc3[nH]2)cc1, the Potency is reported as inconclusive [falling, partial curve].
For O=C(Nn1cnnc1)C(c1ccccc1)c1ccccc1, the Potency was “inactive”.
In the case of Cc1cccc(C)c1NC(=O)NC1(C(=O)NCCCN2CCOCC2)CCCCC1, the Potency is reported as “inactive”.
For N#Cc1ccc(NCC(=O)Nc2ccc3c(c2)OCCO3)cc1, the Potency was inconclusive [falling, single point].
For Nc1nnc(-c2cccc([N+](=O)[O-])c2)s1, the Potency was inconclusive [falling, single point].
For N#CCC(=O)Nc1ccc(C(=O)Nc2cccc(S(N)(=O)=O)c2)cc1, the Potency was “inactive”.
With O=Nc1c2cc(-c3ccccc3)[nH]nc-2c2ccccc12 the Potency was inconclusive [falling, full curve].
COc1ccc(-c2csc(NC(=O)c3cccs3)c2C(=O)O)cc1OC was tested, and the Potency was active: 22.4 µM.
For COc1ccc(C(=O)/C=C/Nc2cc(C)ccn2)cc1, the Potency was inconclusive [falling, single point].
CC1=NNC(=O)C1CCC(=O)N/N=C\c1cccc(Cl)c1 (centres undefined) was tested, and the Potency was inconclusive [falling, single point].
For C=CCNC(=O)/C(C#N)=C/c1ccc(OS(=O)(=O)c2ccc(C)cc2)c(OC)c1, the Potency was “inactive”.
For N/C(=N\OC(=O)c1ccc(F)cc1)c1ccccc1, the Potency was inconclusive [falling, partial curve].
In the case of COc1ccc(C(=O)Nc2ccc(N3CCOCC3)cc2)cc1OC, the Potency is reported as inconclusive [falling, partial curve].
With O=C(CC1NCCN(Cc2ccccc2)C1=O)Nc1ccccc1 (centres undefined) the Potency was inconclusive [falling, single point].
For C=CC[n+]1ccc(/C=C2\C=Cc3cc(C)ccc3N2CC)c2ccccc21, the Potency was inconclusive [falling, single point].
With C=CCn1c(SCc2nc3sc(C(=O)O)c(C)c3c(=O)[nH]2)nnc1-c1ccc(C(C)(C)C)cc1 the Potency was inconclusive [falling, single point].
CC(C)(C)NCc1cc(Cl)ccc1OCc1ccccc1F was tested, and the Potency was inconclusive [falling, single point].
In the case of N/C(=N/OC(=O)c1ccccc1F)c1nonc1N, the Potency is reported as active: 15.8 µM.
For CC(/C=C/c1ccco1)=N\NC(=O)COc1ccc(C)c(C)c1, the Potency was “inactive”.
With CCNc1nc(NCC)nc(N/N=C/c2ccc(O)c(O)c2)n1 the Potency was inconclusive [falling, full curve].
O=C1CSC(=S)N1/N=C/c1ccc(O)c([N+](=O)[O-])c1 was tested, and the Potency was inconclusive [falling, single point].
In the case of COc1ccc(-c2cc(=O)[nH][nH]2)cc1, the Potency is reported as “inactive”.
With Cc1ccn2cc(-c3cccc([N+](=O)[O-])c3)nc2c1 the Potency was inconclusive [falling, single point].
With Fc1ccccc1Cn1nnc2c(-n3ccnc3)ncnc21 the Potency was “inactive”.
For COc1cccc(CNc2ccc3c(c2)ncn3C)c1OC, the Potency was inconclusive [falling, partial curve, poor fit].
In the case of CCC(C)NC(=O)COC(=O)c1ccc(Cl)cc1O (centres undefined), the Potency is reported as inconclusive [falling, single point].
For Cc1ccc(-n2[nH]c(C)c(/C=N/n3c(C)nc4ccccc4c3=O)c2=O)cc1, the Potency was active: 12.6 µM.
CCCCC(=O)OCC(=O)Nc1ccc(SC(F)F)cc1 was tested, and the Potency was “inactive”.
With OCCC1CN(Cc2cccn2-c2nccs2)CCN1CCc1ccccc1 (centres undefined) the Potency was inconclusive [falling, single point].
With COc1ccc(C(=O)O)cc1S(=O)(=O)NCCN(C)C the Potency was inconclusive [falling, single point].
COCc1cc(=O)[nH]c(SC)n1 was tested, and the Potency was “inactive”.
In the case of CCN(Cc1ccncc1)S(=O)(=O)c1ccc(C(C)=O)cc1, the Potency is reported as “inactive”.
With Cc1ccsc1C(=O)Nc1ccc2c(c1)OCCO2 the Potency was inconclusive [falling, partial curve, poor fit].
In the case of O=C(Cc1ccccc1)Nc1ccccc1N1CCCC1, the Potency is reported as inconclusive [falling, single point].
Cc1ccc(C(=O)CNc2nc3c(c(=O)[nH]c(=O)n3C)n2Cc2ccccc2)cc1 was tested, and the Potency was “inactive”.
For CCOc1ccc(NC(=O)Nc2cccnc2)cc1, the Potency was inconclusive [falling, partial curve].
In the case of CCNc1c(C(=O)O)ccc2c1C(=O)c1ccccc1C2=O, the Potency is reported as inconclusive [falling, single point].
With Cc1cccc(N(C(=O)c2snc(C(N)=O)c2N)C(C)C(=O)NCC2CCCO2)c1 (centres undefined) the Potency was inconclusive [falling, full curve, poor fit].
Cc1[nH]n(-c2ccc([N+](=O)[O-])cc2)c(=O)c1C=NCCN1CCN(C(=O)c2ccc(F)cc2)CC1 was tested, and the Potency was inconclusive [falling, partial curve].
Cc1ccc(CNC(=O)C2CCCN2C(=O)NCc2ccccc2)cc1 (centres undefined) was tested, and the Potency was “inactive”.
With CS(=O)(=O)c1ccc(NCCc2ccc(S(N)(=O)=O)cc2)c([N+](=O)[O-])c1 the Potency was “inactive”.
With CCOC(=O)C(Nc1ccc2ccccc2c1)C(=O)OCC the Potency was “inactive”.
For Cc1cccc(NC(=O)c2cc([N+](=O)[O-])ccc2NCC2CCCO2)n1 (centres undefined), the Potency was “inactive”.
COc1ccc(C(=O)Nc2c(C)cc(C)cc2C)cc1OC was tested, and the Potency was “inactive”.
With Cc1cc(N2C(=O)C=CC2=O)c([N+](=O)[O-])cc1C the Potency was “inactive”.
For O=C(O)C(Cc1c[nH]c2ccccc12)N1C(=O)c2ccccc2C1=O (centres undefined), the Potency was inconclusive [falling, single point].
For COc1ccccc1CNC(=S)Nc1ccc2nc(N3CCN(C)CC3)cc(C)c2c1, the Potency was “inactive”.
Cc1cc(/C=C2\C(=N)N3N=C(S(C)(=O)=O)SC3=NC2=O)c(C)n1Cc1ccccc1 was tested, and the Potency was inconclusive [falling, single point].
For COc1ccc(/C=C/C(=O)C2C(=O)C=C(C)OC2=O)cc1O (centres undefined), the Potency was inconclusive [falling, single point].
With CCCCc1nc2c(c3c1C[C@H](C)OC3)CN(S(=O)(=O)c1ccc3c(c1)OCCN3C)CC2 the Potency was inconclusive [falling, partial curve].
In the case of Cc1ncoc1C(=O)Nc1ncc([N+](=O)[O-])s1, the Potency is reported as inconclusive [falling, partial curve].
In the case of Cc1cc(-c2nc(C)c(C(=O)NNS(=O)(=O)c3ccccc3)s2)no1, the Potency is reported as inconclusive [falling, single point].
For CCCCc1c(O)cc(C)[nH]c1=O, the Potency was inconclusive [falling, single point].
With O=C(Nc1cccc([N+](=O)[O-])c1)C12CC3CC(C1)CC(n1cnc([N+](=O)[O-])n1)(C3)C2 the Potency was “inactive”.
In the case of CCCCN(CC)Cc1ccc(CNC(=O)Nc2ccc(OC)cc2OC)o1, the Potency is reported as inconclusive [falling, full curve, poor fit].
